Assay results from the supplement of paper PMC11417369.
This is one part of the list.

These sequences were tested on PF3D7_0420300 AP2 domain 1 (GST-tagged) (assay: gcPBM binding intensity (ln(normalized median fluorescence intensity)); higher = stronger DNA binding).
How it was run: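 The highest Masliner-normalised natural-log median intensity across replicate spots of either probe orientation is reported as binding intensity. GST-tagged P. falciparum DNA-binding domains expressed in E. coli were applied for 1 h to an Agilent 4 × 180k array of primer-extended double-stranded 36-bp intergenic genomic probes plus negative controls, and bound protein was detected with Alexa488 anti-GST antibody and scanned at 488 nm.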
“CCTCATACGAAATATAAACACACATACAATAAATAA [CACACA_site8620]” was tested, and the “gcPBM binding intensity (ln)” value was 9.67. “TATGCACTTTAGGGCAGTACGTCAACATTATCTTTA [XGTACX_site3382]” was tested, and the “gcPBM binding intensity (ln)” value was 9.02. For “ATTTTTTTCATAGACACACACAATATATCTGTTTCC [CACACA_site3023]”, the “gcPBM binding intensity (ln)” value was 9.83. “ATAAATTTTTTTTTTTTTTTTTTTTTTTTTTTTTTT [CACACA_negctrl_site508]” was tested, and the “gcPBM binding intensity (ln)” value was 9.28. For TGTTAAAATTATTTGGTGCACTTGTTTTACCTTATT, the “gcPBM binding intensity (ln)” value was 9.29. “TATATTTATTATAACACACACATATAAATATTATAG [CACACA_site6726]” was tested, and the “gcPBM binding intensity (ln)” value was 9.67. With “CATTATTCTTTTAATATACACACTTTGTCTTTTCGC [CACACA_site2762]” the “gcPBM binding intensity (ln)” value was 9.41. ATATTATTATATATAGTGCATATTATTATTTTTATT was tested, and the “gcPBM binding intensity (ln)” value was 9.31. “TCTCATAGTAAACACACACACACACCCACATATATA [CACACA_site5034]” was tested, and the “gcPBM binding intensity (ln)” value was 10.3. “TATTTTCATTATACTACTTCGAAGATACCCTTTTTT [CACACA_negctrl_site256]” was tested, and the “gcPBM binding intensity (ln)” value was 9.21. For “AGATAAATATATTGTAGTACAGGAGCATAAATATAT [XGTACX_site8267]”, the “gcPBM binding intensity (ln)” value was 9.56. For “TATAAACATTAAAGGTGTACAATTTAATTTCAATTT [XGTACX_site2944]”, the “gcPBM binding intensity (ln)” value was 9.12. In the case of “GTTCTTCCTTGTAAATGTACAAATACAAAATGTTCC [XGTACX_site6738]”, the “gcPBM binding intensity (ln)” value is reported as 9.22. With “GATATATATGTTCACACACACATGGAAATATATATA [CACACA_site4371]” the “gcPBM binding intensity (ln)” value was 9.84. “ATATCATAAAAAATGTGTACATATATGAACATATAA [XGTACX_site2239]” was tested, and the “gcPBM binding intensity (ln)” value was 9.31. For “TTAAGATCCTAAAAAACACACAATTGCGAATAATAA [CACACA_site6005]”, the “gcPBM binding intensity (ln)” value was 9.37. In the case of “GGAAATTAACAGAACACAATGTAACAATTTCTAACA [CACACA_negctrl_site1250]”, the “gcPBM binding intensity (ln)” value is reported as 9.33. “TTTCTTCTTCAATGTTGTACTTTTCTCTTTTCTTAA [XGTACX_site1017]” was tested, and the “gcPBM binding intensity (ln)” value was 9.49. In the case of “GTTCATAAAAATTTTTGTACCCATAAAATATTCCTC [XGTACX_site8611]”, the “gcPBM binding intensity (ln)” value is reported as 9.09. In the case of “GTAGGTGTTTTTGGTTGTACATATAAATATATATAC [XGTACX_site3380]”, the “gcPBM binding intensity (ln)” value is reported as 9.52. In the case of “TTTTTTTTTTTTAATTGTACTTATTAAAAAAAGCAA [XGTACX_site8713]”, the “gcPBM binding intensity (ln)” value is reported as 8.45. In the case of “AAAAAATGAAAAAACTGTACGCAATTTTGTTTTTAT [XGTACX_site2299]”, the “gcPBM binding intensity (ln)” value is reported as 9.2. “AAGTTTTTTTTTATCACACACAAAAAAAAAAATATA [CACACA_site1362]” was tested, and the “gcPBM binding intensity (ln)” value was 9.34. With “AAAAAAAAAAAAAAGTGTACCTTCAAAATAATATTG [XGTACX_site2844]” the “gcPBM binding intensity (ln)” value was 9.09. In the case of “ATAAATATAAAACACACACACATATTATATATATAT [CACACA_site3064]”, the “gcPBM binding intensity (ln)” value is reported as 10.1. With CTATATATAACCCATGTGCACTTTTTATGTACAATA the “gcPBM binding intensity (ln)” value was 9.41. “TCTTTCCTTATTAAAACACACAAATACATTATTTAA [CACACA_site2147]” was tested, and the “gcPBM binding intensity (ln)” value was 9.12. With “CCTTTTTCTACTTTCTCACACATATTAAGAATTATA [CACACA_site5621]” the “gcPBM binding intensity (ln)” value was 9.37. In the case of “AAAAAATGTTATAAAAGTACATAATTTATCTACCAT [XGTACX_site3035]”, the “gcPBM binding intensity (ln)” value is reported as 9.17. “AATTCTTTATTATATGCACACGTACATATAATATAT [CACACA_site8621]” was tested, and the “gcPBM binding intensity (ln)” value was 9.38. In the case of “TTTAAAAAATAATATTGTACTATTCTCCCAATTTCT [XGTACX_site7079]”, the “gcPBM binding intensity (ln)” value is reported as 8.95. In the case of “TAACTTTGGAGGAGCTGTACGATTATTTTGATCCTT [XGTACX_site2514]”, the “gcPBM binding intensity (ln)” value is reported as 9.36. “AAAAAATTTCAAATAACACACACTAATATAAATATG [CACACA_site6783]” was tested, and the “gcPBM binding intensity (ln)” value was 9.78. “ATATACTGTATGAAAGCACACATACTTATTACTAAC [CACACA_site9384]” was tested, and the “gcPBM binding intensity (ln)” value was 9.42. “TTTTTATATAATTTAACACACATTTCATATAAAAAA [CACACA_site3103]” was tested, and the “gcPBM binding intensity (ln)” value was 9. For “ATGTGAAAATAAGACACACTCAAAAGGTTTATATTA [CACACA_site4595]”, the “gcPBM binding intensity (ln)” value was 9.31. With “AATTGTTTTTTTTTCTTATTTTATGTTATACACACA [TGCATGCA_negctrl_site380]” the “gcPBM binding intensity (ln)” value was 9.92. “AAAAAAAAAAAAAACACATGCAGAAGAAAAAAAATA [TGCATGCA_site545]” was tested, and the “gcPBM binding intensity (ln)” value was 9.62. “AAATGAACATATATGTGTACTTATATTTTTCTAAAT [XGTACX_site3388]” was tested, and the “gcPBM binding intensity (ln)” value was 9.24. With “ATATATTTTTCTTTACGTACGAAGCAAAATAACATT [XGTACX_site8145]” the “gcPBM binding intensity (ln)” value was 9.18. “AAAAAAAAAAAAAAAGTGCATATATAAATATTGTAT [GTGCAC_site9459]” was tested, and the “gcPBM binding intensity (ln)” value was 9.27. “TCATTAAATGTTTAGGTGCATACTTTAATTTTTAAT [GTGCAC_site9906]” was tested, and the “gcPBM binding intensity (ln)” value was 9.14. For “ATTATATAAGTACACAAACAAGTATGAGATTCAAAA [GTGCAC_negctrl_site119]”, the “gcPBM binding intensity (ln)” value was 9.34. For “TGTTTTAAACTAATTTGTACATAGTTATTTATATTT [XGTACX_site7196]”, the “gcPBM binding intensity (ln)” value was 9.3. In the case of TATTAATTTCGGGAAGTGCATTATGTTTATAGAATA, the “gcPBM binding intensity (ln)” value is reported as 9.03. “CCATATATTTGGTATAGTACTTTTTATTTTATTTCA [XGTACX_site8933]” was tested, and the “gcPBM binding intensity (ln)” value was 9.32. In the case of “AAAACGCAGTTTAATATACACACCAAAAAAAAAAAA [CACACA_site3036]”, the “gcPBM binding intensity (ln)” value is reported as 9.32. With “CACAAATATATACATACACACATATATACACATATA [CACACA_site8024]” the “gcPBM binding intensity (ln)” value was 9.86. “TTTGAGATGTGGTGTACACAAAATTAGGTACACATC [CACACA_site5773]” was tested, and the “gcPBM binding intensity (ln)” value was 9.28. For “TTTTATATTTATTTTTGTACATAAATGATCTCAAAT [XGTACX_site7768]”, the “gcPBM binding intensity (ln)” value was 9.02. With “TGTTTTTAAAAATATACACACACAGATATTATATAT [CACACA_site8162]” the “gcPBM binding intensity (ln)” value was 9.66. With “ATATATATATATTTATGTACGCATTTATAGACGTAG [XGTACX_site6031]” the “gcPBM binding intensity (ln)” value was 9.1. “AAATATTATAATAATTGTACTATATATACAGTTATT [XGTACX_site1963]” was tested, and the “gcPBM binding intensity (ln)” value was 9.3. For “AAAAAAAAAAAATTATGTACATATTATATATAATGG [XGTACX_site2885]”, the “gcPBM binding intensity (ln)” value was 9.2. For “TAAAATATGTCATGGGTGCTTCTTTTTATACCTATG [GTGCAC_site9888]”, the “gcPBM binding intensity (ln)” value was 9.35. In the case of “TATGATAACCATAATTGTACAGAATGAAACGTAAAT [XGTACX_site1653]”, the “gcPBM binding intensity (ln)” value is reported as 9.55. For “ACTTAAATAATACATACACACATGTACTTACAGAAA [CACACA_site8458]”, the “gcPBM binding intensity (ln)” value was 9.46.
